About 18,000 (5.8%) of roughly 310,000 compounds were called active. The inconclusive results got no clear call from the source; some entries with a clear call stand among them for comparison. The call rests on the fitted dose curve; in most records, active means well fitted inhibition curve with a large enough effect; inconclusive means small, poorly fitted or top-dose-only effect, or another doubt; inactive means no such curve, though single readings can be large or run the other way. Potencies of inconclusive entries are left out as doubtful fits.
Experiment: Primary qHTS for delayed death inhibitors of the malarial parasite plastid, 48 hour incubation
Settings: P. falciparum luciferase growth in erythrocytes; series mostly up to 28.7 µM; activity change, negative = inhibition: at the top concentration
In short: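 Read-out is firefly luciferase luminescence from an integrated reporter in P. falciparum, so falling signal marks reduced parasite growth. Infected erythrocytes were at 2% hematocrit and 0.1% parasitemia (final) in Albumax-supplemented RPMI 1640.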
With CC1Cc2ccccc2N1C(=S)NC(=O)c1ccc(Cl)cc1Cl (centres undefined) the Potency was inconclusive [inhibitor, partial curve, poor fit].
With Cc1ccc(-c2nc3c(=O)n(C)c4ccccc4c3o2)cc1 the Potency was inconclusive [inhibitor, partial curve].
In the case of Cc1ccc(S(=O)(=O)N(C)C)cc1NC(=O)COC(=O)Cc1ccccc1F, the Potency is reported as inconclusive [inhibitor, single point].
In the case of COc1ccc(OC)c(CC(=O)NC(c2ccccc2)c2ccccc2)c1, the Potency is reported as inconclusive [inhibitor, partial curve, poor fit].
In the case of Cc1nc(Nc2cnc(/C=C/c3cc(C(=O)Nc4cccc(C(F)(F)F)c4)ccc3C)cn2)cc(N2CCNCC2)n1, the Potency is reported as active: 0.738 µM.
With O=C(Nc1cccnc1)Nc1ccc2c(c1)OCO2 the “activity change, negative = inhibition” value was inactive: 132%.
With Cc1ccc(N2C(=O)[C@@H]3[C@H](C2=O)C2CCCN2[C@@H]3C(=O)c2ccccc2)cc1 (some centres undefined) the Potency was active: 11.7 µM.
With CCOc1ccccc1NC(=O)c1nnn(CC(=O)Nc2cc(C)cc(C)c2)c1N the “activity change, negative = inhibition” value was inactive: 13%.
In the case of CC(C)[C@H](NC(=O)[C@@H]1Cc2ccccc2CN1C(=O)OC(C)(C)C)C(=O)NCC1CCC(C(=O)O)CC1 (some centres undefined), the “activity change, negative = inhibition” value is reported as inactive: -13.4%.
For CCOc1ccc(N2CC(C(=O)Nc3c(C)n(C)n(-c4ccccc4)c3=O)CC2=O)cc1 (centres undefined), the “activity change, negative = inhibition” value was inactive: 0.507%.
For O=C(/C=C/c1ccc(Cl)cc1)N(c1ccccn1)C1CCCCC1, the Potency was inconclusive [inhibitor, partial curve].
With C=CCOC(=O)C1=C[C@@H](c2csc3ccccc23)C[C@@H](OCc2ccc(CO)cc2)O1 the Potency was inconclusive [inhibitor, single point].
In the case of CCCCn1c(C2CCCCC2)nc2cc3[nH]c(=O)c(C(C)C)nc3cc21, the “activity change, negative = inhibition” value is reported as inactive: -7.89%.
In the case of Cc1ccc(C(=O)Nc2ccc(N3CCN(C(=O)c4ccco4)CC3)cc2)cc1, the Potency is reported as inconclusive [inhibitor, partial curve, poor fit].
For C=C1CC2C(CCC3(C)C2CCC3(O)C(C)=O)C2(C)CCC(=O)C=C12 (centres undefined), the Potency was inconclusive [inhibitor, partial curve, poor fit].
For Cc1ccccc1Cn1cc(S(=O)(=O)CC(=O)Nc2nccs2)c2ccccc21, the Potency was active: 11.7 µM.
In the case of COc1ccc2oc(=O)c(/C(C)=N/NC(=O)c3ccncc3)cc2c1, the “activity change, negative = inhibition” value is reported as inactive: 7.06%.
For CCOc1ccc(/C=C/C(=O)OC(C)C(=O)NC2CCCCC2C)cc1OC (centres undefined), the Potency was inconclusive [inhibitor, single point].
In the case of Cc1ccc(S(=O)(=O)N(Cc2ccccc2)c2ccccc2C(=O)NCc2ccco2)cc1, the Potency is reported as active: 10.4 µM.
With CN(Cc1ccccc1)C(=O)COC(=O)c1cc([N+](=O)[O-])ccc1N1CCOCC1 the Potency was inconclusive [inhibitor, single point].
With CC(C)(C)c1ccc(O)c(CN2CCN(c3ccccc3)CC2)c1 the Potency was active: 2.08 µM.
With Cn1c(N)c(C(=O)COC(=O)C2CCC(C(C)(C)C)CC2)c(=O)n(C)c1=O (centres undefined) the Potency was active: 13.1 µM.
In the case of O=C(NCCCn1ccnc1)C(=O)NCC1OCCCN1S(=O)(=O)c1ccccc1 (centres undefined), the “activity change, negative = inhibition” value is reported as inactive: -0.305%.
In the case of Cc1cc(C)n(-c2ccc(NC(=O)C3CCCCN3C(=O)c3ccc(C)s3)cc2)n1 (centres undefined), the Potency is reported as inconclusive [inhibitor, partial curve].
With CCOC(=O)/C(C#N)=C/C1=C(N2CCOCC2)C(C)(C)OCC1 the “activity change, negative = inhibition” value was inactive: 1.14%.
For CSc1ncccc1C(=O)NCC(c1cccs1)N1CCOCC1 (centres undefined), the Potency was inconclusive [inhibitor, single point].
In the case of COc1ccc(N2C(=O)NC(=O)/C(=C/c3ccc([N+](=O)[O-])s3)C2=O)cc1, the “activity change, negative = inhibition” value is reported as inactive: 17.1%.
In the case of COc1ccc(Nc2nc(-c3cccnc3)cs2)c(OC)c1, the Potency is reported as inconclusive [inhibitor, single point].
With CN(Cc1ccccc1)C(=O)COc1cc(Cl)ccc1Cl the Potency was inconclusive [inhibitor, partial curve, poor fit].
In the case of COc1cc(NC(C)C(=O)N2CC(C)OC(C)C2)cc(OC)c1 (centres undefined), the Potency is reported as active: 4.65 µM.
For CC(C)C[C@H](NC(=O)c1nc[nH]c1C(=O)N1CCC(C)CC1)C(=O)OCc1ccccc1, the Potency was inconclusive [inhibitor, partial curve, poor fit].
With COc1ccc(/C=C2\SC(=O)N(CC(=O)Nc3cccc(C)c3)C2=O)cc1O the Potency was inconclusive [inhibitor, partial curve, poor fit].
In the case of OCC(O)CNC(=S)NC1CCCCC1 (centres undefined), the “activity change, negative = inhibition” value is reported as inactive: 4.59%.
For CC(C)C[C@@]12C(=O)N(c3cccc(Br)c3)C(=O)N1[C@H](c1ccc(Cl)cc1)[C@@H]1C(=O)N(C3CCCCC3)C(=O)[C@@H]12, the Potency was active: 2.62 µM.
With CCC(c1nnc(SC(C)C(=O)NC2CC2)n1-c1ccc(OC)cc1)N(C)C (centres undefined) the Potency was inconclusive [inhibitor, single point].
With CCn1cc(C(=O)NC(C)CCc2ccccc2)c(=O)c2cc(S(=O)(=O)N(C)C)ccc21 (centres undefined) the Potency was active: 6.57 µM.
With CC(C(=O)N1CCN(Cc2ccc3c(c2)OCO3)CC1)c1ccc([N+](=O)[O-])cc1 (centres undefined) the “activity change, negative = inhibition” value was inactive: -24.4%.
With CCN1CCN(c2ccc(S(=O)(=O)N3CCOCC3)cc2NC(=O)c2cc(Cl)nc3ccccc23)CC1 the Potency was inconclusive [inhibitor, single point].
In the case of O=S(=O)(c1ccc(N2CC=C(c3ccccc3)CC2)nc1)N1CCCC1, the Potency is reported as inconclusive [inhibitor, partial curve, poor fit].
For CCN(CC(=O)Nc1ccc(C(C)=O)cc1)CC(=O)Nc1cccc(OC)c1, the “activity change, negative = inhibition” value was inactive: -5.17%.
With c1ccc2sc(Sc3ncnc4sccc34)nc2c1 the Potency was active: 1.85 µM.
With N#Cc1ccccc1Sc1ccccc1C(=O)NCC(c1ccco1)N1CCCCC1 (centres undefined) the Potency was inconclusive [inhibitor, single point].
In the case of COC(=O)C1=C(c2cccc(C#N)c2)C[C@@H]2CC[C@H]1N2C(=O)NCCOc1ccccc1, the Potency is reported as inconclusive [inhibitor, single point].
In the case of NCCS(=O)(=O)O, the Potency is reported as inconclusive [inhibitor, single point].
For Cc1ccc2c(c1)c(C)c(C)n2CC(O)Cn1nc(C)cc1C (centres undefined), the Potency was inconclusive [inhibitor, partial curve, poor fit].
For COc1ccc2nc(SCC(=O)NCc3ccccc3)[nH]c2c1, the “activity change, negative = inhibition” value was inactive: 9.71%.
For CCCN1CC(=O)N2C(c3ccccc3)c3[nH]c4ccccc4c3C[C@H]2C1=O (some centres undefined), the Potency was active: 2.33 µM.
With COc1ccc(C(CNC(=O)Cc2ccccc2)N2CCCCC2)cc1 (centres undefined) the “activity change, negative = inhibition” value was inactive: -9.66%.
With CCOC(=O)C1=C(C)N=C2SC(C)C(=O)N2C1c1ccc(OC(C)=O)c(OC)c1 (centres undefined) the Potency was inconclusive [inhibitor, single point].
In the case of COc1ccc(NC(=O)/C(C#N)=C\c2ccc(-c3cccc(C(=O)O)c3C)o2)cc1, the Potency is reported as inconclusive [inhibitor, single point].
In the case of COC(=O)C1=C(O)/C(=C\c2cc(C)n(-c3ccccc3F)c2C)N=C1C, the Potency is reported as inconclusive [inhibitor, full curve, poor fit].
With Fc1cccc(CCN2C(=S)NC[C@@H]2Cc2ccccc2)c1 the Potency was inconclusive [inhibitor, partial curve].
With CCOC(=O)c1cc(S(=O)(=O)N2CCN(c3ccccc3OC)CC2)cn1C the “activity change, negative = inhibition” value was inactive: -15.4%.
With CCn1c2ccccc2c2cc(NC(=O)CNC)ccc21 the Potency was inconclusive [inhibitor, single point].
With NC(=O)c1ccc(Cn2c(C(=O)c3cc(Cl)c(N)c(Cl)c3)c3ccccc3[n+]2[O-])cc1 the Potency was inconclusive [inhibitor, single point].
In the case of Cc1ccsc1C(=O)C1CCCN(Cc2cnc(N)nc2)C1 (centres undefined), the Potency is reported as inconclusive [inhibitor, partial curve, poor fit].
In the case of COc1ccc(OC)c(NC(=O)CSc2nc3ccccc3c3nc4ccccc4n23)c1, the Potency is reported as active: 0.828 µM.
With O=C(CNS(=O)(=O)c1cccs1)NCc1ccccc1 the Potency was inconclusive [inhibitor, single point].
For COC(=O)c1c(NC(=O)COC(=O)[C@@H](NS(=O)(=O)c2ccccc2)C(C)C)sc2c1CCC2, the Potency was inconclusive [inhibitor, single point].
For CCOC(=O)C(C)Sc1nc(C2CC2)cc(C(F)(F)F)c1C#N (centres undefined), the Potency was inconclusive [inhibitor, single point].
For O=C(NCc1ccccc1)c1cccnc1Sc1ccccc1, the activity change, negative = inhibition was inactive: -5.84% [at 0.00184 µM].
For O=C1COC(c2ccccc2)=CN1Cc1ccccc1, the Potency was inconclusive [inhibitor, full curve].
In the case of COc1ccc(/C=N/Nc2cc(N(C)C)nc(N(C)C)n2)cc1, the Potency is reported as inconclusive [inhibitor, single point].
In the case of Cn1c(=O)c2c(ncn2CC(=O)N/N=C/C=C/c2ccccc2[N+](=O)[O-])n(C)c1=O, the “activity change, negative = inhibition” value is reported as inactive: 83.9%.
In the case of O=C(Cn1cnc2c(nnn2Cc2ccc(F)cc2)c1=O)NCc1ccco1, the “activity change, negative = inhibition” value is reported as inactive: -7.01%.
For O=S(=O)(c1ccc(SCCOc2ccccc2)nc1)N1CCCC1, the Potency was inconclusive [inhibitor, single point].
With O=c1ccc2ccc(Oc3ccc(Cl)cc3[N+](=O)[O-])cc2o1 the Potency was inconclusive [inhibitor, single point].
In the case of COc1ccc2cc(CCNC(=O)C3CC3)c(=O)[nH]c2c1, the Potency is reported as inconclusive [inhibitor, full curve, poor fit].
In the case of CC(=O)n1cc([C@H]2C=C(C(=O)N3CCN(Cc4ccc5c(c4)OCO5)CC3)O[C@@H](OCCCCO)C2)c2ccccc21, the Potency is reported as active: 0.928 µM.

From PubChem BioAssay AID504832 (National Center for Advancing Translational Sciences (NCATS), 2011)
On the % scale 0 is the no-effect control and ±100 the full control effect; potency means the concentration at half of the fitted maximal effect; tags describe the fitted curve by direction and shape.
